Results taken from PubChem BioAssay AID488969 (Vanderbilt High Throughput Screening Facility, 2010).
Over roughly 110,000 compounds, “z-score” has its median near -0.1; the highest 2% begin near 2. The list shows a part of the results.

These compounds were tested against Metabotropic glutamate receptor 8 (Rattus norvegicus) (UniProt P70579) (assay: rat mGluR8 modulators via GIRK flux, primary screen, cell-based, thallium flux, HTS (AID 488969)). Settings: HEK293 rat mGluR8, GIRK (G protein-gated inwardly rectifying potassium channel) thallium flux, FluoZin2; at 10 µM; stronger effect = higher value; submaximal glutamate (EC20) added with thallium.
UniProt P70579, sequence (P70579 whole entry, looked up): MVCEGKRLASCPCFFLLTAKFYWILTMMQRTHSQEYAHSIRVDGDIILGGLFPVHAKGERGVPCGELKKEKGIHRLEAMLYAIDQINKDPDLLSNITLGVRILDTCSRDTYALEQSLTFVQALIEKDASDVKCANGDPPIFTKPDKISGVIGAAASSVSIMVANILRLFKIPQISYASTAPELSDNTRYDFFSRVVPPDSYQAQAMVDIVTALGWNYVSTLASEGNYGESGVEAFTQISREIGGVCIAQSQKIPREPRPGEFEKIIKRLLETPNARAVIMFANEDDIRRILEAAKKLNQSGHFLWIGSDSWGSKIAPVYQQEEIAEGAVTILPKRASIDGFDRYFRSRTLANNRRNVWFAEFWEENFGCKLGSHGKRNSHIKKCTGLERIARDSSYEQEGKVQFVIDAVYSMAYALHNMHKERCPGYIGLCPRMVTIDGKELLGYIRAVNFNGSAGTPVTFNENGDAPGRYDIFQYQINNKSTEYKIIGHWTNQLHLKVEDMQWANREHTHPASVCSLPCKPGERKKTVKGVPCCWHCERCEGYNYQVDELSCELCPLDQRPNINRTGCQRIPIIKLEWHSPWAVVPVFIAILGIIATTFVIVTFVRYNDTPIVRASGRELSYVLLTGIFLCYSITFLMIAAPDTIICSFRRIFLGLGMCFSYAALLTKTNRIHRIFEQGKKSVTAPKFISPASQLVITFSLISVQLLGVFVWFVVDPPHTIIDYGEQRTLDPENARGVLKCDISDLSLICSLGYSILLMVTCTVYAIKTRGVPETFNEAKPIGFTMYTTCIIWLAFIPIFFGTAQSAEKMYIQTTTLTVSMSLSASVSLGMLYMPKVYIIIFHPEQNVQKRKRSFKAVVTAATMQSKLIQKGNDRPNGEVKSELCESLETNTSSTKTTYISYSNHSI

Row | SMILES | z-score
1 | O=C(CCS(=O)(=O)c1ccccc1)NC12CC3CC(CC(C3)C1)C2 | -0.514
2 | CCNC(=S)NNC(=O)c1cc(C)on1 | -0.232
3 | COc1c(/C=N/Nc2ccc([N+](=O)[O-])cc2[N+](=O)[O-])c(C)nn1-c1ccccc1 | 0.178
4 | CCOC(=O)N1CCN(C(=O)c2ccc(OCC)c(OCC)c2)CC1 | 0.263
5 | CCC(C)NC(=O)C1CCN(S(=O)(=O)CC)CC1 (centres undefined) | -0.396
6 | c1ccc2c(c1)ccc1nnc(SCc3ccc4c(c3)OCO4)n12 | -0.511
7 | CCCC(=O)NCc1ccc2c(c1)cc(C)n2C | -0.371
8 | N#CC1=C(N)NC(SCC(=O)c2ccc(Cl)cc2)=C(C#N)C12CCCC2 | -0.593
9 | Cc1nnc(C)n1/N=C/c1ccc(C(C)C)cc1 | 0.0448
10 | COC(=O)c1ccc(Sc2ccccc2NS(=O)(=O)c2ccc(OC)cc2)nc1 | 0.0537
11 | C/C(=N\N1CCN(C2c3ccccc3-c3ccccc32)CC1)c1cccnc1 | -0.195
12 | CC(=O)c1cc2c(cc1NC(=O)CSc1nc3ccc(C)cc3[nH]1)OCO2 | 0.771
13 | Cc1cc(/C=C(\C#N)C(=O)NCc2cccs2)c(C)n1-c1ccc([N+](=O)[O-])cc1 | 0.114
14 | Clc1ccc2nc(SCc3nnc(-c4ccccc4)o3)[nH]c2c1 | -0.339
15 | CC1CN(c2nc(-c3ccccc3)nc3ccccc23)CC(C)O1 (centres undefined) | -0.673
16 | CCOC(=O)c1c(NC(=S)NC(=O)c2ccc(Cn3cc(Cl)cn3)o2)sc2c1CCCCC2 | 0.0384
17 | CCN(CC)S(=O)(=O)c1ccc(OC)c(NC(=O)COc2ccc3c(C)cc(=O)oc3c2)c1 | -0.114
18 | Cc1cccc(-n2c(C)nc3sccc3c2=O)c1 | 1.99
19 | CCCCCn1c(CNC(=O)c2cccs2)nc2ccccc21 | -0.237
20 | CCn1c(O)c(/C=N/NC(=O)c2ccncc2)c(=O)n(CC)c1=S | 1.66
21 | Cc1ccc(NC(=O)C2CCCN2S(=O)(=O)c2ccc(F)cc2)c(C)c1 (centres undefined) | -0.334
22 | COc1ccccc1C(=O)N1CCNC(=O)C1CC(=O)Nc1cccc(C)c1 (centres undefined) | -0.198
23 | Cc1nnc(OC(C)C)c2nn(-c3ccccc3F)c(C)c12 | -0.589
24 | COC(=O)c1ccccc1NC(=O)CN(C)S(=O)(=O)c1ccc(OC)cc1 | 0.195
25 | COc1cc(C=C(c2nc3ccccc3s2)c2nc3ccccc3s2)ccc1O | -0.149
26 | CCn1c(COc2cc(C)cc(C)c2)nnc1SCC(=O)N1CCN(c2ccccc2)CC1 | -0.182
27 | CCc1ccc(C(=O)Nc2ccc(S(=O)(=O)Nc3nc(C)cc(C)n3)cc2)o1 | -0.39

Row | SMILES | z-score
28 | Cn1nc(-c2ccccc2)c(C(=O)Nc2ccc(C(F)(F)F)cc2)c1Cl | -0.393
29 | O=C(N/N=C/c1cc(Br)cs1)c1ccccc1[N+](=O)[O-] | -0.395
30 | O=C1c2cccc3cccc(c23)C(=O)N1CCN1CCN(C(=S)Nc2ccc(F)cc2)CC1 | -0.203
31 | Cc1ccc(NC(=O)C2CCC(=O)N2)cc1C (centres undefined) | -0.504
32 | COc1ccccc1NC(=O)CSc1ccc2nnc(-c3cccnc3)n2n1 | -0.277
33 | Cc1cc(C(=O)CSc2nc(N)cc(=O)[nH]2)c(C)n1CCc1ccc(F)cc1 | -0.612
34 | CC(C)(C)NC(=O)CSc1nc2scc(-c3ccccc3)c2c(=O)[nH]1 | -0.345
35 | CSc1nnc2c3ccccc3c3ccccc3c2n1 | 0.0535
36 | COc1ccccc1NC(=O)CCN1C(=O)C2CC=C(Cl)CC2C1=O (centres undefined) | 0.334
37 | Cn1nnc(NCc2cc(Br)ccc2OCc2cccs2)n1 | -1.17
38 | CN(C)S(=O)(=O)c1cc(NC(=O)CN2CCNC(=O)C2)ccc1Cl | -0.12
39 | O=C(CN1CCN(S(=O)(=O)c2ccc(F)cc2)CC1)Nc1cc(C(F)(F)F)ccc1Cl | -0.166
40 | CCCC(=O)n1nc(-c2ccc(OC)cc2)nc1N | -0.082
41 | CCn1c(SCC(=O)Nc2sc3c(c2C(N)=O)CCC(C)C3)nnc1-c1ccco1 (centres undefined) | -0.0158
42 | Cc1cccc(NC(=O)c2cc3n(n2)C(C(F)(F)F)CC(C2CC2)N3)c1C (centres undefined) | -0.161
43 | CN(C)CCNc1ncnc2c1sc1nc(N3CCOCC3)c3c(c12)CC(C)(C)SC3 | 0.0422
44 | CC1(C)C(=O)OC(c2ccco2)C(C)(C)C1=O (centres undefined) | 0.0457
45 | COc1cc(S(=O)(=O)Nc2cc(C)cc(C)c2)ccc1F | -0.0939
46 | COc1ccc(-n2c(=S)[nH]c3cc(C(=O)NCCCN4CCCC4=O)ccc3c2=O)cc1OC | -0.333
47 | O=C1c2cnc3nc(SCc4ccccc4)nn3c2CC2c3ccccc3CCN12 (centres undefined) | -0.307
48 | OC(CN1CCN(c2ccccc2)CC1)Cn1c2ccccc2c2ccccc21 (centres undefined) | -0.155
49 | CSC1=NCCN1C(=O)Cc1ccc(Cl)cc1 | 0.392
50 | Cc1cc(OCC(=O)Nc2ccncc2)ccc1Br | 0.365
51 | CCc1ccc(Nc2nnc(SCC(=O)NCCN3C(=O)CSC3=O)s2)cc1 | 0.0282
52 | Cc1ccc(-n2[nH]c(C)c(/C=N/NC(=O)c3cccc([N+](=O)[O-])c3)c2=O)cc1C | 0.186
53 | COc1ccc(C(c2c(O)ccc3ccccc23)N2CCOCC2)c(OC)c1 (centres undefined) | -0.27
54 | CCOC(=O)N1CCN(C(=O)c2ccc3nc(N4CCCCC4)sc3c2)CC1 | -0.424
